pIC50: −log10 of the molar value. IC50 is the fitted dose that halves viability relative to control wells, and lower means more sensitive; a limit (>, <) means that the fit lies beyond the doses tested. The AUC spans the tested range (256-fold, ending at the top dose) of the same fit; the more sensitive the line, the further below 1. For some assays here: An inferred top dose is not printed in the source and was worked back from the curve model. For some assays here: An entry number marks a drug with two screens in the source, which often give different values.
Key:
Assay in all cases: Viability of human cancer cell lines after 72 h of drug (GDSC screen)
NSC-87877 = compound: O=S(=O)(O)c1ccc2cc(N=Nc3cc(S(=O)(=O)O)c4cccnc4c3O)ccc2c1 [NSC-87877]; settings: top dose 16 µM; top dose inferred
Description: (§1)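 Human cancer cell lines in 384-well plates, medium with 10% serum, drug for 72 h over a 256-fold dose range (nine 2-fold or five 4-fold steps up to the top dose). Adherent lines were fixed and stained with the nucleic acid dye Syto60, suspension lines read with resazurin; signal relative to control wells, capped at 0 and 100%. One two-parameter sigmoid per drug and line, fitted in a mixed model over all curves with the slope shared within a line.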

Masitinib = compound: Cc1ccc(NC(=O)c2ccc(CN3CCN(C)CC3)cc2)cc1Nc1nc(-c2cccnc2)cs1 [Masitinib]; settings: top dose 20 µM
Description: as §1

BX-912 = compound: O=C(Nc1cccc(Nc2ncc(Br)c(NCCc3cnc[nH]3)n2)c1)N1CCCC1 [BX-912]; settings: top dose 10.24 µM; top dose inferred
Description: as §1

LAQ824 = compound: O=C(/C=C/c1ccc(CN(CCO)CCc2c[nH]c3ccccc23)cc1)NO [LAQ824]; settings: top dose 1.024 µM; top dose inferred
Description: as §1

Bleomycin = compound: Cc1c(N)nc([C@H](CC(N)=O)NC[C@H](N)C(N)=O)nc1C(=O)N[C@H](C(=O)N[C@H](C)[C@@H](O)[C@H](C)C(=O)N[C@H](C(=O)NCCc1nc(-c2nc(C(=O)NCCC[S+](C)C)cs2)cs1)[C@@H](C)O)[C@@H](OC1OC(CO)C(O)C(O)C1OC1OC(CO)C(O)C(OC(N)=O)C1O)c1cnc[nH]1 [Bleomycin]
Description: as §1

OSI-930 = compound: O=C(Nc1ccc(OC(F)(F)F)cc1)c1sccc1NCc1ccnc2ccccc12 [OSI-930]; settings: top dose 10.24 µM
Description: as §1

VNLG/124 = compound: CCCC(=O)OCc1ccc(OC(=O)/C=C(C)/C=C/C=C(C)/C=C/C2=C(C)CCCC2(C)C)cc1 [VNLG/124]; settings: top dose 5.12 µM; top dose inferred
Description: as §1

Elesclomol = compound: CN(NC(=O)CC(=O)NN(C)C(=S)c1ccccc1)C(=S)c1ccccc1 [Elesclomol]; settings: top dose 0.2 µM; top dose inferred
Description: as §1

[1] = top dose 50 µM, screen: GDSC drug entry 1378, top dose inferred
[2] = top dose 64 µM, screen: GDSC drug entry 190

| Cell Line | AUC (NSC-87877) | pIC50 (NSC-87877) | AUC (Masitinib) | pIC50 (Masitinib) | AUC (BX-912) | pIC50 (BX-912) | AUC (LAQ824) | pIC50 (LAQ824) | AUC (Bleomycin; [1]) | pIC50 (Bleomycin; [1]) | AUC (Bleomycin; [2]) | pIC50 (Bleomycin; [2]) | AUC (OSI-930) | pIC50 (OSI-930) | AUC (VNLG/124) | pIC50 (VNLG/124) | AUC (Elesclomol) | pIC50 (Elesclomol) |
| --- | --- | --- | --- | --- | --- | --- | --- | --- | --- | --- | --- | --- | --- | --- | --- | --- | --- | --- |
| A172 (glioma, adherent) | 0.968 | < 4.80 | 0.879 | 4.71 | 0.829 | 5.22 | 0.603 | 6.92 | 0.571 | 5.32 | 0.712 | 4.81 | 0.96 | < 4.99 | 0.987 | < 5.29 | – | – |
| BC-3 (B-cell lymphoma, suspension) | 0.982 | < 4.80 | 0.833 | 4.95 | 0.853 | 5.17 | 0.459 | 7.30 | – | – | 0.138 | 6.45 | 0.96 | < 4.99 | 0.922 | < 5.29 | – | – |
| BICR31 (head and neck, adherent) | 0.985 | < 4.80 | 0.909 | < 4.70 | 0.936 | < 4.99 | 0.486 | 7.23 | – | – | 0.296 | 5.97 | 0.986 | < 4.99 | 0.982 | < 5.29 | – | – |
| BT-549 (breast, adherent) | – | – | – | – | – | – | – | – | 0.644 | 5.04 | – | – | – | – | – | – | 0.435 | 8.11 |
| CAL-148 (breast, suspension) | 0.976 | < 4.80 | 0.963 | < 4.70 | 0.984 | < 4.99 | 0.43 | 7.38 | – | – | 0.527 | 5.33 | 0.946 | < 4.99 | 0.974 | < 5.29 | – | – |
| CAMA-1 (breast, adherent) | 0.975 | < 4.80 | 0.901 | < 4.70 | 0.955 | < 4.99 | 0.443 | 7.37 | 0.964 | < 4.30 | 0.635 | 4.98 | 0.941 | < 4.99 | 0.955 | < 5.29 | – | – |
| CHP-134 (neuroblastoma, suspension) | – | – | 0.789 | 4.94 | 0.594 | 5.90 | – | – | – | – | – | – | 0.971 | < 4.99 | 0.92 | < 5.29 | – | – |
| COR-L303 (small cell lung carcinoma, suspension) | – | – | 0.906 | < 4.70 | 0.884 | < 4.99 | – | – | – | – | – | – | 0.987 | < 4.99 | 0.98 | < 5.29 | – | – |
| COR-L311 (small cell lung carcinoma, suspension) | – | – | 0.85 | 4.77 | 0.508 | 6.17 | – | – | – | – | – | – | 0.908 | < 4.99 | – | – | – | – |
| Caov-3 (ovary, adherent) | 0.983 | < 4.80 | 0.884 | 4.76 | 0.652 | 5.80 | 0.9 | < 5.99 | – | – | 0.686 | 4.91 | 0.971 | < 4.99 | 0.991 | < 5.29 | – | – |
| ECC12 (stomach, suspension) | 0.947 | < 4.80 | – | – | – | – | – | – | – | – | – | – | – | – | – | – | – | – |
| H-EMC-SS (chondrosarcoma, adherent) | 0.976 | < 4.80 | 0.97 | < 4.70 | 0.647 | 5.73 | 0.801 | 6.17 | 0.6 | 5.19 | 0.811 | 4.33 | 0.976 | < 4.99 | 0.969 | < 5.29 | – | – |
| HCC1599 (breast, suspension) | 0.978 | < 4.80 | 0.86 | < 4.70 | 0.791 | 5.27 | 0.33 | 7.70 | 0.61 | 5.18 | 0.408 | 5.67 | 0.928 | < 4.99 | 0.978 | < 5.29 | – | – |
| HCC1806 (breast, adherent) | 0.876 | 4.86 | 0.886 | 4.72 | 0.958 | < 4.99 | 0.556 | 7.05 | 0.152 | 6.52 | 0.1 | > 6.60 | 0.973 | < 4.99 | 0.981 | < 5.29 | – | – |
| HCC-33 (small cell lung carcinoma, adherent) | 0.983 | < 4.80 | 0.865 | 4.74 | 0.848 | 5.11 | 0.363 | 7.58 | – | – | 0.61 | 5.10 | 0.973 | < 4.99 | 0.988 | < 5.29 | – | – |
| HL-60 (acute myeloid leukaemia, suspension) | 0.98 | < 4.80 | 0.878 | 4.78 | 0.651 | 5.80 | 0.321 | 7.67 | 0.949 | < 4.30 | 0.811 | 4.52 | 0.936 | < 4.99 | 0.789 | 5.70 | – | – |
| HeLa (cervix, adherent) | 0.98 | < 4.80 | 0.968 | < 4.70 | 0.947 | < 4.99 | – | – | 0.641 | 5.12 | – | – | 0.969 | < 4.99 | 0.987 | < 5.29 | 0.649 | 7.50 |
| JHOS-4 (ovary, adherent) | – | – | – | – | – | – | – | – | 0.842 | < 4.30 | – | – | – | – | – | – | 0.212 | 8.94 |
| KP-N-YS (neuroblastoma, adherent) | 0.972 | < 4.80 | 0.814 | 4.89 | 0.614 | 5.86 | 0.336 | 7.68 | – | – | 0.722 | 4.72 | 0.922 | < 4.99 | 0.889 | < 5.29 | – | – |
| MDA-MB-157 (breast, adherent) | 0.987 | < 4.80 | 0.947 | < 4.70 | 0.91 | < 4.99 | 0.295 | 7.78 | 0.833 | 4.48 | 0.919 | < 4.19 | 0.988 | < 4.99 | 0.988 | < 5.29 | – | – |

— the supplement of paper PMC4967469
